# Out of some 340,000 compounds screened, about 6,900 (2%) were called active. Rule as the data show it: active = inhibition above about 30%; inactive = below that, where a call was filed. The list shows a part of the results, in another mix than the full data. The source gives no active or inactive call for entries shown without one.
# Biological target: D(2) dopamine receptor (Homo sapiens) (UniProt P14416)
# Experiment: HTS Assay for Allosteric Antagonists of the Human D2 Dopamine Receptor: Primary Screen for Antagonists; also: 0% is about no effect
# Settings: HEK293 TREx D2 cells, calcium flux, dopamine EC80; at 10 µM; stronger effect = higher value
# Outline: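 HEK293 T-REx D2 cells, tet-induced, calcium dye no-wash. Cpd pintool add, 180 s kinetic, then EC80 DA, 180 s kinetic. Ca flux read.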
# UniProt P14416, sequence (P14416 whole entry, looked up): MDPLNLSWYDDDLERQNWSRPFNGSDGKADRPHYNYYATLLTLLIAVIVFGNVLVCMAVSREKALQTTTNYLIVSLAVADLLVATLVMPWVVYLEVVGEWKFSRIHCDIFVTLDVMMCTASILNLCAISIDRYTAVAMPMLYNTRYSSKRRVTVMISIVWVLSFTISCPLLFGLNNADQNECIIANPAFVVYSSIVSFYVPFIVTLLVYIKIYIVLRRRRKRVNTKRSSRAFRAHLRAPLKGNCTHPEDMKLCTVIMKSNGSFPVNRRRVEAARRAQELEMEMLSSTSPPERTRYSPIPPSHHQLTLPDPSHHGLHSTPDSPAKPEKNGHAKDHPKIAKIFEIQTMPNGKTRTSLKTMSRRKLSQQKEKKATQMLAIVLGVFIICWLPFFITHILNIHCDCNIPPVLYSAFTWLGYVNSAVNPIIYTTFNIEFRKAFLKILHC
row,SMILES,inhibition
1,CCOc1ccc(-c2oc3ccc(C)cc3c(=O)c2O)cc1,-2.61%
2,COCCCNC(=O)c1ccc2c(c1)nc(C)n2-c1cccc(C)c1,25.9%
3,O=C(Nc1ccc(C(=O)OCc2cc(=O)n3nc(C4CC4)sc3n2)cc1)c1cccc(F)c1,18.4%
4,CCN(c1ccccc1)S(=O)(=O)c1ccc(NC(=O)c2cc(=O)c3ccccc3o2)cc1,0.957%
5,CCOc1ccccc1Nc1sc(C(=O)c2ccccc2)c(N)c1S(=O)(=O)c1ccc(C)cc1,15.4%
6,O=C(Nc1ccc2oc(-c3ccc4ccccc4c3)nc2c1)c1ccc(Cl)c(Cl)c1,-1.6%
7,Cc1ccc(CCNC(=O)c2cc3c(-c4ccccc4F)nn(C)c3s2)cc1,-7.91%
8,COc1ccc(OC)c(NC(=O)c2cn(CC(C)C)c(=O)c3cc(OC)c(OC)cc23)c1,8.15%
9,CCOc1ccc(NC(=O)CCCc2nnc3n(C)c(=O)c4sccc4n23)cc1,-2.52%
10,O=C(NCc1ccccc1F)C(=O)NCC(c1ccco1)S(=O)(=O)c1cccs1 (stereo unspecified),10.3%
11,CC1=C(C(=O)Nc2ccccc2)C(c2cccc(Cl)c2)n2nc(SCC(=O)c3ccc(C)cc3)nc2N1 (stereo unspecified),15.2%
12,O=C(CSc1nc(-c2ccccc2)nc2c1Cc1ccccc1O2)N1CCCCC1,13.3%
13,O=c1[nH]c2ccc(NCc3ccc(-c4ccccc4)o3)cc2[nH]1,-3.81%
14,Cc1ccc(Cn2c(=O)n(CCCCC(=O)NCc3ccccc3Cl)c(=O)c3ccccc32)cc1,3.75%
15,Cc1cccc(OCC(=O)Nc2ccccc2C(=O)OCc2cc(=O)n3nc(C)sc3n2)c1,-0.243%
16,O=C(Nc1nc2n(n1)C(c1ccc(Cl)cc1)CC(c1ccc(Cl)cc1)N2)c1ccco1 (stereo unspecified),active: 31.9%
17,COc1ccc(OCC(=O)OCc2cc(=O)n3nc(C4CC4)sc3n2)cc1,2.97%
18,CCCCOC(=O)c1ccc(NC(=O)c2cc(-c3cccs3)on2)cc1,4.61%
19,CCOC(=O)c1c(NC(=O)/C=C/c2ccc(C)cc2)sc2c1CCCC2,-7.54%
20,Cc1ccc(Nc2c(-c3ccc(C)s3)nc3ncccn23)cc1,6.01%
21,O=C(NCCc1ccc(Cl)cc1)c1cc(-c2ccc(Cl)cc2)n[nH]1,-8.2%

row,SMILES,inhibition
1,Cc1ccc(CNC(=O)CCCc2nnc3n(C)c(=O)c4sccc4n23)cc1,-9.56%
2,CCC(C)NC(=O)c1ccc2nc(CCc3ccccc3)oc2c1 (stereo unspecified),8.32%
3,Cc1ccc(NC(=O)C(=O)NCC(c2ccc3c(c2)OCO3)N2CCOCC2)cc1C (stereo unspecified),-8.03%
4,COc1ccccc1CNC(=O)c1ccc(-c2nc(CS(=O)(=O)c3ccc(C)cc3)c(C)o2)cc1,11.4%
5,CC(C)CC(=O)Nc1ccccc1OCc1cc(=O)n2ccccc2n1,-9.69%
6,CC1(C)CC(=O)c2c(oc3c(Cl)cc(NS(=O)(=O)c4ccc(Br)cc4)cc23)C1,11.7%
7,Cc1c(Cl)c(C(F)(F)F)nn1CC(=O)NCc1ccco1,active: 39.9%
8,CC(=O)N1CCc2c(sc3c2c(=O)n(-c2cc(Cl)ccc2C)c(=O)n3Cc2ccccc2F)C1,-12.3%
9,O=C(Nc1ccc(Br)cc1F)N1CCC(CN2CCc3ccccc3C2)CC1,-21.6%
10,COC(=O)c1cc(Cl)ccc1NC(=O)CSc1ncc(S(=O)(=O)c2ccc(Br)cc2)c(=O)[nH]1,-2%
11,O=c1c2cc(NC(=S)NCCCN3CCC(Cc4ccccc4)CC3)ccc2nc2n1CCCCC2,active: 51.8%
12,CC(C)(C)OC(=O)N1CCC(c2c(C(=O)N3CCCCC3)cnn2-c2cccc(F)c2)CC1,2.93%
13,Clc1cccc(Cl)c1CN1CCN(c2ncccn2)CC1,active: 46.3%
14,CCCCn1c(SCC(=O)Nc2ccc(OCC)cc2)nc2ccsc2c1=O,-16.7%
15,COc1cc(OC)c(NC(=O)c2noc3c2CSc2ccccc2-3)cc1Cl,11.4%
16,CC(=O)c1ccc(N2CCN(C(=O)CCc3nnc4n(C)c(=O)c5sccc5n34)CC2)cc1,11.6%
17,Cc1ccc(C)c(NC(=O)CSc2nnc(-c3cc4occc4n3C)n2-c2ccccc2C)c1,3.96%
18,CCc1ccccc1NC(=O)[C@@H](c1ccccc1)N1Cc2ccccc2C1=O,-11.3%
19,Cc1ccc(NS(=O)(=O)c2cc3[nH]c(=O)c(=O)[nH]c3cc2C)cc1N(C)C,11.1%
20,Cc1ccc(CNC(=O)CSc2ncc3c(n2)-c2ccc(Cl)cc2N(Cc2ccccc2)S3(=O)=O)cc1,5.84%
21,Cc1cccc(C(=O)Nc2sc3c(c2C(=O)NC(C)C)CCCC3)c1,-3.68%

row,SMILES,inhibition
1,CCOC(=O)c1cc(S(=O)(=O)NCc2cccc(Cl)c2)[nH]n1,0.511%
2,CC(=O)Nc1ccc(CN2CCN(c3cccc(C(F)(F)F)c3)CC2)cc1,active: 42.7%
3,S=C(NCCc1ccccc1)N1CCc2ccccc2C1,active: 40.8%
4,CCOC(=O)c1cnc2cc(F)c(F)cc2c1Nc1ccccc1O,13.4%
5,COc1cc(C(CC(=O)Nc2cccc(C(C)=O)c2)N2Cc3ccccc3C2=O)cc(OC)c1OC (stereo unspecified),3.32%
6,COc1cccc(C2C=C(c3ccccc3)Nc3c(C(=O)Nc4ccccc4)cnn32)c1OC (stereo unspecified),12.3%
7,CC(=O)Nc1nonc1-c1nnc(SCC(=O)Nc2cc(Cl)ccc2C)n1C,-11.2%
8,Cc1c(O)c(CN2CCCCC2)cc2c1oc(=O)c1ccccc12,active: 65.9%
9,CCOC(=O)c1c(NC(=O)/C=C/c2ccc(C)cc2)sc(C(C)=O)c1C,2.79%
10,CC(=O)C1=C(c2ccc(Cl)c(Cl)c2)N(C(C)=O)n2c(nnc2-c2ccccc2)S1,2.95%
11,O=C(COCc1cc(-c2ccc(F)cc2)on1)Nc1cc(Cl)ccc1O,5.77%
12,COc1ccc(CCNC(=O)CCCn2c(=O)c3ccccc3n(Cc3ccccc3C#N)c2=O)cc1OC,-4.95%
13,COc1cccc2cc(-c3nc(Nc4cccc(C)c4C)sc3C)c(=O)oc12,-4.68%
14,Nc1nonc1C(=O)NCCNCc1ccccc1F,7.9%
15,CCOC(=O)c1ccc(N2C(=O)c3n[nH]c(-c4cccs4)c3C2c2ccc(CC)cc2)cc1 (stereo unspecified),15%
16,O=S(=O)(Nc1ccc(F)c(Cl)c1)c1ccc(Br)s1,16.7%
17,Cc1cccc(N2CCN(C(=O)Cn3ncc4c5ccccc5n(C)c4c3=O)CC2C)c1 (stereo unspecified),-2.4%
18,O=c1c(S(=O)(=O)c2ccccc2)cn(Cc2ccc(F)cc2)c2cc(N3CCOCC3)c(F)cc12,-1.99%
19,COc1ccc(C(=O)c2sc3nc(-c4ccc(C)cc4)cc(C(F)(F)F)c3c2N)cc1,-22.5%

# From PubChem BioAssay AID485344 (National Center for Advancing Translational Sciences (NCATS), 2010)
